According to publication PMC7819943, “Rice protein-binding microarrays: a tool to detect cis-acting elements near promoter regions in rice”:
The list shows a part of the results.

target: T1, OsWOX13 (Oryza sativa, UniProt Q5QMM3 1-267); test: protein-binding microarray (RPBM); PBS, 2% BSA, 51.3 ng/ul salmon testes DNA, 50 uM zinc acetate, 200 nM TF, 25 C, 1 h; high values mean tight binding; details: protein: recombinant; tags: N-terminal polyhistidine and DsRed monomer fusion (pET32a); label: CyDye5-dUTP incorporated in the synthesized complementary strand; 3' TTTTT single-stranded linker to array surface; dsDNA, one strand shown
T1 sequence: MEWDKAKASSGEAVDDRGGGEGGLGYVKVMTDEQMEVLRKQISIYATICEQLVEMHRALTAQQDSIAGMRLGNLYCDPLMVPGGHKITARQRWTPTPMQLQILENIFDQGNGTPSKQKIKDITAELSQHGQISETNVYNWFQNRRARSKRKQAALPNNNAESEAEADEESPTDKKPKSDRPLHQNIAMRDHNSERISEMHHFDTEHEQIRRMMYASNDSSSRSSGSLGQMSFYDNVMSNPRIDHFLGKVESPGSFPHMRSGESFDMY
Method in brief: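 In PBS with 2% BSA, salmon testes DNA and 50 µM zinc acetate, 200 nM protein was incubated on a custom Agilent array at 25 °C for 1 h and then washed off. The array had been made double-stranded by primer extension with Cy5-dUTP and blocked with 2% BSA. The proteins were transcription factors fused N-terminally to polyhistidine and DsRed, expressed in E. coli BL21-CodonPlus and purified on Ni–NTA. The binding signal is per-feature fluorescence intensity (arbitrary units) from an Axon 4000B scanner.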

| Sequence | binding signal |
| --- | --- |
| TGACAATTGACATAGCCTGACTTTTGGAAGTCTGCAGCTGCGGAGTCACCTAGTGCAG | 14100 fluorescence intensity (a.u.) |
| CCTAATTAATCGATCAACTGCTACACTAGCTAAGACGACGCGGAGTCACCTAGTGCAG | 23400 fluorescence intensity (a.u.) |
| ATTAAATTATACTTTTACCATTTTATGTAATCTTGAGCTTCGGAGTCACCTAGTGCAG | 26000 fluorescence intensity (a.u.) |
| TAAATTGATGACGTGGCGCAATGAGGTGACGAAACACTTTCGGAGTCACCTAGTGCAG | 31500 fluorescence intensity (a.u.) |
| TTTGATTTTGGGAGAACTAAAATCAGTTCTCCGAAGATCGCGGAGTCACCTAGTGCAG | 5400 fluorescence intensity (a.u.) |
| AAATGATGGAATATTATATGGTGCAAAGAATTATACCATCCGGAGTCACCTAGTGCAG | 3670 fluorescence intensity (a.u.) |
| AGATCATTAAAGTGGCTAATTTCTCTAAATAGCAGGCACTCGGAGTCACCTAGTGCAG | 4540 fluorescence intensity (a.u.) |
| TTAATTTGCATTACTAAATATTATCGTAGCGTTAGCACGGCGGAGTCACCTAGTGCAG | 12500 fluorescence intensity (a.u.) |
| CTGTCGTTGTTCTGCTAATTAATCTCGTAGCATTATTTACCGGAGTCACCTAGTGCAG | 5220 fluorescence intensity (a.u.) |
| CGAGGTGATTTGCTCGGAGCTTTCGCTTTCTTACTAGTTTCGGAGTCACCTAGTGCAG | 5410 fluorescence intensity (a.u.) |
| AAGATTGACCGAGTTTTGTTTTAAACATTAAATATTTATGCGGAGTCACCTAGTGCAG | 15900 fluorescence intensity (a.u.) |
| ATCCTCCTTGTAATATGAATAGGAATGTAAATGTGGACGGCGGAGTCACCTAGTGCAG | 5660 fluorescence intensity (a.u.) |
| CCATCGGCAAATTTAACGGATGAAATTAGTGCCACTTGTTCGGAGTCACCTAGTGCAG | 3180 fluorescence intensity (a.u.) |
| GCATTAATTATTATATATTCCACCGTTTAGCAGTTCAGAACGGAGTCACCTAGTGCAG | 18500 fluorescence intensity (a.u.) |
| CAAACAGACATGAAAATTATATAACAAATGACAATATAAACGGAGTCACCTAGTGCAG | 4460 fluorescence intensity (a.u.) |
| TAAGATGTTAATTGCGTCCACATTAATTAAGAACCCTATACGGAGTCACCTAGTGCAG | 17900 fluorescence intensity (a.u.) |
| CTCTAAATTAGGGTTTAAACATCCGATGTGACAGCACCTTCGGAGTCACCTAGTGCAG | 23100 fluorescence intensity (a.u.) |
| GGAAAACTGGAAATTACGACATATCGATCGCCATGTATCTCGGAGTCACCTAGTGCAG | 13600 fluorescence intensity (a.u.) |
| GCAAACGGTTTAAATTGCCATCCCTACTTGAGAGAACTTGCGGAGTCACCTAGTGCAG | 3380 fluorescence intensity (a.u.) |
| GTACAGTAAATTAAGTTATCTTTGCAGAAAGAAATGGGTACGGAGTCACCTAGTGCAG | 5820 fluorescence intensity (a.u.) |
| TCTCATAAACTAATTATCCAATCTATGATCCGAACACATCCGGAGTCACCTAGTGCAG | 12300 fluorescence intensity (a.u.) |

| Sequence | binding signal |
| --- | --- |
| TATATATATATATATATATAGTAGATTTAATATACCATGCCGGAGTCACCTAGTGCAG | 8600 fluorescence intensity (a.u.) |
| TGTAAATTGCTGCAAAATTTTCACAGAAATTTCTGTACATCGGAGTCACCTAGTGCAG | 22200 fluorescence intensity (a.u.) |
| AGCAAATTAATCCAAAACCTGTGCTCTAGCTAGCTGGAGCCGGAGTCACCTAGTGCAG | 5640 fluorescence intensity (a.u.) |
| AATATAAATTAATTTATAGTTAAAACTTTTATATGACTTACGGAGTCACCTAGTGCAG | 35200 fluorescence intensity (a.u.) |
| ATTTTGAAGTTCCTGTAAGTTGGACATATCTACTGGTTCCCGGAGTCACCTAGTGCAG | 65500 fluorescence intensity (a.u.) |
| CATGAAAATTTTGGTGGGATAGGGATGGGGAATTGAGAAACGGAGTCACCTAGTGCAG | 5260 fluorescence intensity (a.u.) |
| CTGATTTCGTACATTAATATGGTATTCCACGGTGGTACCTCGGAGTCACCTAGTGCAG | 3350 fluorescence intensity (a.u.) |
| CAAATAGAGTAATTATCCTTCTGTGCCAGGTATTCGAAAACGGAGTCACCTAGTGCAG | 8990 fluorescence intensity (a.u.) |
| GTCTGATTTAACTAAGGTCCTATTTAGTTCCTACAAAATGCGGAGTCACCTAGTGCAG | 25800 fluorescence intensity (a.u.) |
| GATATAATATAGATAATTTGTTGAAGTAAGAAGAGATACGCGGAGTCACCTAGTGCAG | 7120 fluorescence intensity (a.u.) |
| ACAGATTAAAACTGACAACCGAAGATCATATGCATCTAATCGGAGTCACCTAGTGCAG | 5340 fluorescence intensity (a.u.) |
| AAAACCACATCGGATTGATTTAGAGGGTACAGTTTGTCCGCGGAGTCACCTAGTGCAG | 10500 fluorescence intensity (a.u.) |
| TTATATTAATTTATTTTCAGAATTATTTAAGTAATACTTGCGGAGTCACCTAGTGCAG | 26100 fluorescence intensity (a.u.) |
| GGTGACAGTGCTGCTGTTAAATTGGATGTGGAGCCTTCATCGGAGTCACCTAGTGCAG | 3890 fluorescence intensity (a.u.) |
| GTTAACTGCAAATTACACGCAACGAAAACCCTCCATCGACCGGAGTCACCTAGTGCAG | 35100 fluorescence intensity (a.u.) |
| TCGTTAATTGTACTTCTTGTTTCTGAAACTTTCCGGAGACCGGAGTCACCTAGTGCAG | 26300 fluorescence intensity (a.u.) |
| TCTTTATTTCTTGTTGATTATAGGATCAAATCAACTGGCTCGGAGTCACCTAGTGCAG | 8300 fluorescence intensity (a.u.) |
| ACATCTAATTTGAAATGGATGTAGTATATTCTAATTGCATCGGAGTCACCTAGTGCAG | 17000 fluorescence intensity (a.u.) |
| AGGTTAGATTGGATTGATCCAGCAGTTTTAGTAGTCTGGACGGAGTCACCTAGTGCAG | 29500 fluorescence intensity (a.u.) |
| TTGATTAATTTATTTATAGTTTTGTGAAAGTTTGCGCCGTCGGAGTCACCTAGTGCAG | 57900 fluorescence intensity (a.u.) |
| CCACTAATAAAGAAATTAGGGTAAGGAACCAAGATGTACGCGGAGTCACCTAGTGCAG | 5710 fluorescence intensity (a.u.) |
